Data as given in the supplement of paper PMC12217912.
The other results are listed elsewhere or left out. Sequences were assembled here from the parent chain. Values near 0.05 are background.

B1: TEV protease; numbered along this chain (parent)
chain: MGESLFKGPRDYNPISSSICHLTNESDGHTTSLYGIGFGPFIITNKHLFRRNNGTLVVQSLHGVFKVKDTTTLQQHLVDGRDMIIIRMPKDFPPFPQKLKFREPQREERICLVTTNFQTKSMSSMVSDTSCTFPSGDGIFWKHWIQTKDGQCGSPLVSTRDGFIVGIHSASNFTNTNNYFTSVPKNFMELLTNQEAQQWVSGWRLNADSVLWGGHKVFMVKPEEPFQPVKEATQL

Variants of: B1
Test: raw area under fraction-flipped curve 0-4 h after induction (AUC4h, not background-subtracted), DNA-recorder readout of cleavage of the substrate (dimensionless); higher = more cleavage of the substrate by the protease variant
Conditions: temperature: 34 °C; time window: 0-4 h after rhamnose induction
Protocol: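 In vivo DNA recorder in E. coli TOP10(DE3) ΔrhaA at 34 °C. Each TEVp single-site mutant (parent TEVp 0) is paired with a single-site variant of the 7-mer TEVs (canonical ENLYFQ|S). The substrate sits between flexible linkers in a Bxb1-sfGFP-TEVs-SsrA fusion, so cleavage stabilises Bxb1 and speeds flipping of a recombination array, read by NGS. The value is the raw area under the fraction-flipped curve over 0-4 h after rhamnose induction (AUC4h), with ≥20 reads per time point. It is not background-subtracted; inactive controls average about 0.047.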
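Also: Bxb1 expression induced with 0.2% (w/v) L-rhamnose at OD600 near 0.5, cultures sampled hourly, flipped fraction per protease–substrate barcode pair counted by paired-end Illumina sequencing.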

Variant | area with substrate ENLYFQA | area with substrate ENLYFQC | area with substrate ENLYFQD | area with substrate ENLYFQG | area with substrate ENLYFQH | area with substrate ENLYFQI | area with substrate ENLYFQK | area with substrate ENLYFQL | area with substrate ENLYFQM | area with substrate ENLYFQN | area with substrate ENLYFQP | area with substrate ENLYFQR | area with substrate ENLYFQS | area with substrate ENLYFQT | area with substrate ENLYFQW | area with substrate ENLYFQY | area with substrate ENLYFQV | area with substrate ENLYFQE | area with substrate ENLYFQF | area with substrate ENLYFQQ
N24I | 0.09 | 0.0807 | 0.0649 | 0.102 | 0.0769 | 0.0626 | 0.0725 | 0.0538 | 0.0663 | 0.0643 | 0.0605 | 0.0581 | 0.0822 | 0.0652 | 0.0546 | 0.0681 | – | – | – | –
G35F | 0.0653 | 0.049 | – | 0.0407 | – | 0.0366 | 0.0458 | – | – | – | – | – | 0.0362 | 0.0442 | – | – | 0.0247 | – | – | –
G35Y | 0.0372 | – | – | – | – | – | – | – | – | 0.0488 | – | – | 0.0459 | – | 0.0566 | 0.0227 | – | – | – | –
L5G | 0.0799 | 0.125 | 0.0798 | – | 0.1 | 0.0686 | – | – | 0.0795 | 0.079 | – | 0.0698 | 0.101 | 0.0652 | – | – | 0.0562 | 0.0711 | 0.0798 | –
L5S | 0.115 | – | – | 0.0901 | – | 0.062 | 0.0637 | – | 0.051 | 0.0666 | – | 0.034 | 0.113 | 0.0692 | – | 0.105 | 0.067 | – | – | –
L61I | 0.0864 | 0.102 | – | – | 0.082 | 0.0598 | 0.0671 | – | – | 0.0805 | – | – | 0.109 | – | 0.022 | – | – | 0.0625 | – | –
L61Y | 0.0753 | 0.107 | 0.0609 | 0.0949 | 0.0745 | – | 0.0568 | 0.0608 | 0.0938 | – | 0.0616 | – | 0.0996 | – | 0.049 | – | – | – | 0.0593 | –
N53H | 0.0708 | 0.072 | – | 0.0754 | 0.102 | 0.0487 | 0.0651 | 0.0657 | 0.101 | 0.0736 | 0.0707 | 0.0587 | 0.0865 | 0.0706 | 0.0628 | – | – | – | – | 0.0564
S26I | 0.0783 | 0.0734 | 0.0678 | 0.106 | 0.06 | 0.048 | 0.0507 | 0.0614 | 0.0701 | 0.0625 | – | – | 0.0747 | 0.0546 | 0.0606 | 0.0415 | – | 0.0517 | – | –
T31M | 0.107 | 0.116 | – | 0.122 | – | – | 0.0571 | – | – | – | 0.0761 | 0.0468 | 0.0982 | – | 0.0681 | – | – | – | 0.0847 | 0.061
I36G | 0.0451 | 0.0474 | – | 0.0526 | 0.0533 | 0.0484 | – | – | – | 0.016 | – | – | 0.0471 | – | – | – | 0.0455 | – | – | –
F49L | 0.0434 | 0.0612 | – | 0.0988 | 0.0723 | 0.0376 | 0.0581 | – | 0.0595 | 0.0562 | – | 0.0605 | 0.0653 | 0.0416 | 0.0658 | 0.0476 | – | – | – | –
F49T | 0.0591 | 0.0667 | – | 0.0527 | 0.0841 | 0.0556 | 0.0508 | 0.0523 | 0.0361 | – | – | 0.0516 | 0.0609 | – | 0.0585 | – | 0.0583 | – | – | 0.0453
Q59W | 0.104 | – | – | 0.109 | – | – | – | 0.0449 | 0.0585 | – | 0.0477 | 0.064 | 0.108 | – | – | 0.0785 | – | – | 0.0788 | –
Q59S | 0.101 | – | 0.0726 | – | – | – | 0.0655 | 0.0594 | – | – | – | – | 0.0992 | 0.0671 | 0.0711 | – | – | – | – | –
Q59C | 0.111 | – | 0.0763 | – | 0.0734 | 0.0635 | – | – | 0.105 | 0.0989 | 0.0598 | 0.0531 | 0.104 | – | 0.0629 | – | 0.0624 | – | – | –
D69V | 0.0427 | 0.0969 | 0.0615 | – | 0.0696 | 0.0485 | – | – | 0.0831 | 0.0612 | 0.0502 | 0.0628 | 0.0862 | – | 0.0535 | – | – | – | 0.0784 | –
V67E | 0.0861 | – | – | – | – | – | 0.0708 | 0.0447 | 0.0865 | – | – | – | 0.0822 | – | – | – | – | – | – | –
H47T | 0.0584 | 0.0593 | 0.0639 | 0.0541 | 0.0605 | – | 0.059 | 0.0505 | 0.054 | 0.0435 | 0.0526 | 0.063 | 0.061 | 0.0662 | 0.0405 | – | – | – | – | –
L33T | 0.206 | – | – | – | 0.064 | – | 0.0677 | 0.0581 | – | – | – | – | 0.121 | 0.0544 | 0.0549 | – | – | – | – | –
L56N | 0.0308 | 0.045 | 0.0461 | 0.0451 | 0.0366 | 0.0415 | 0.0473 | – | 0.0446 | 0.0445 | – | 0.0312 | 0.0476 | 0.0395 | 0.045 | 0.0498 | – | – | 0.0551 | 0.0391
V58Y | 0.058 | – | – | – | – | 0.0486 | – | 0.0715 | 0.0677 | 0.0073 | – | 0.0579 | 0.066 | 0.0494 | 0.0494 | 0.0492 | – | – | – | –
V58C | 0.12 | 0.122 | 0.0837 | – | 0.0493 | 0.0611 | – | 0.05 | – | 0.056 | – | 0.043 | 0.0926 | 0.0544 | 0.0686 | – | – | 0.063 | 0.0673 | 0.0831
G2W | 0.154 | – | 0.0517 | – | 0.111 | – | 0.0625 | 0.0685 | – | – | – | 0.0969 | 0.13 | – | 0.0644 | 0.0964 | – | – | 0.103 | 0.0826
G2P | 0.127 | 0.175 | – | – | – | 0.0484 | – | 0.0658 | – | 0.0959 | – | 0.0586 | 0.127 | 0.0595 | 0.072 | – | 0.0739 | – | – | –
R51Q | 0.101 | 0.129 | – | 0.151 | – | 0.0569 | – | 0.0643 | 0.0878 | – | – | 0.0409 | 0.113 | – | 0.0734 | 0.0801 | 0.0603 | – | 0.0945 | –
R51V | 0.0998 | 0.112 | – | 0.0818 | 0.086 | 0.0638 | 0.0616 | 0.0612 | 0.0543 | 0.07 | – | 0.0522 | 0.102 | 0.0438 | 0.0622 | – | 0.0717 | 0.0689 | – | 0.0688
F41E | 0.0518 | – | – | 0.0533 | – | 0.0557 | – | 0.0425 | – | 0.0593 | – | – | 0.0565 | 0.0571 | 0.0527 | – | – | – | – | –
F41M | 0.107 | 0.154 | – | 0.0965 | 0.0674 | 0.0632 | 0.0638 | – | – | 0.0697 | 0.0601 | 0.0572 | 0.0998 | 0.0599 | 0.0765 | 0.0437 | – | 0.0398 | 0.079 | –
F41Y | 0.145 | 0.171 | 0.0841 | 0.106 | – | 0.0692 | – | 0.0467 | 0.086 | 0.0896 | 0.0649 | 0.0641 | 0.101 | 0.0552 | 0.0632 | 0.0757 | 0.0771 | – | – | 0.0636
